Data from patent US20180362645A1 (Amgen, published 2018).
One block for each binder: values may come before it.

Legend:
Assay in all cases: cell-based or functional assay
rat PAC1 = target: T1, rat PAC1 (rat, UniProt P32215 20-523)
T1 sequence (looked up): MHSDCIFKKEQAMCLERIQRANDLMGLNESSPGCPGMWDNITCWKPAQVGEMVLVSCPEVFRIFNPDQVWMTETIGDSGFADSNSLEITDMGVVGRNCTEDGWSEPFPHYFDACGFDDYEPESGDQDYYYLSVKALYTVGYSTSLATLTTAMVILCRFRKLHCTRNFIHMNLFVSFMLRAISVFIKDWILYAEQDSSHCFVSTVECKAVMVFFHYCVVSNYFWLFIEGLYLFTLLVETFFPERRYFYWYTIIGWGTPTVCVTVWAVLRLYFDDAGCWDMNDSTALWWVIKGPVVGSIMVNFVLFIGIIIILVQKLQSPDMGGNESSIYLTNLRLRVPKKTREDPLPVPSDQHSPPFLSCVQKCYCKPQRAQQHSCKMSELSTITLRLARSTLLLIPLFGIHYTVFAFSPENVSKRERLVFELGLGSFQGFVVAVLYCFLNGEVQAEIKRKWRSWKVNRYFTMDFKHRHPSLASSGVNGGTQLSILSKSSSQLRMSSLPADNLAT

human VPAC2 = target: T2, human VPAC2 (human, UniProt P41587 24-438)
T2 sequence (looked up): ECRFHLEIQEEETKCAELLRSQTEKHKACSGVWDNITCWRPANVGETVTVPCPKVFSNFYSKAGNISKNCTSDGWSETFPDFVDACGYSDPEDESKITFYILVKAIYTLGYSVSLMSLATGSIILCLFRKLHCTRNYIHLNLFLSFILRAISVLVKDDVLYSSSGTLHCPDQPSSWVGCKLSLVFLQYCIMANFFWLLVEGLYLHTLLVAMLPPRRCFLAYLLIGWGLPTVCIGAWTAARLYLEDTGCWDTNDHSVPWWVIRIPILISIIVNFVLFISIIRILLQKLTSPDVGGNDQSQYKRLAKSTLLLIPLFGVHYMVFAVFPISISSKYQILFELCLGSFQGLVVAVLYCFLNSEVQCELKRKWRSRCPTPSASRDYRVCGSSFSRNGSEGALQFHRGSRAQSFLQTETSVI

human VPAC1 = target: T3, human VPAC1 (human, UniProt P32241 31-457)
T3 sequence (looked up): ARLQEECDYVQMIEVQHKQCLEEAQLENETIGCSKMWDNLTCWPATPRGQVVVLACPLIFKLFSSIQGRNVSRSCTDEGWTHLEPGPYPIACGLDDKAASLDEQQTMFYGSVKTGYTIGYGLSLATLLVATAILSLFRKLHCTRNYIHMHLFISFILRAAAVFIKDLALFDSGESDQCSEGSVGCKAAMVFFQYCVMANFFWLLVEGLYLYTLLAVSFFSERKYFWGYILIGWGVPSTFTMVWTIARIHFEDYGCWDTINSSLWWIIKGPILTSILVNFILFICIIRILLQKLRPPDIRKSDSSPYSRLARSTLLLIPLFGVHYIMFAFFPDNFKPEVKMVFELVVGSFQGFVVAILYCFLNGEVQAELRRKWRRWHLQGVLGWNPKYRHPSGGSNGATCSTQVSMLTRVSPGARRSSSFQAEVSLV

cyno PAC1 = cyno PAC1 (cynomolgus)

rat PAC1 IC50 (cAMP assay) (rat PAC1): 21.6 nM | hVPAC2 IC50 (cAMP assay) (human VPAC2): > 10 µM | hVPAC1 IC50 (cAMP assay) (human VPAC1): > 10 µM | cyno PAC1 IC50 (cAMP assay) (cyno PAC1): 0.4 nM
B1: 01B (antibody, human IgG1, kappa)
heavy: QVQLQQSGPGLVKPSQTLSLTCAISGDSVSSNSATWNWIRQSPSRGLEWLGRTYYRSKWSNHYAVSVKSRITINPDTSKSQFSLQLNSVTPEDTAVYYCARGTWKQLWFLDHWGQGTLVTVSSASTKGPSVFPLAPSSKSTSGGTAALGCLVKDYFPEPVTVSWNSGALTSGVHTFPAVLQSSGLYSLSSVVTVPSSSLGTQTYICNVNHKPSNTKVDKKV[no letters for human IgG1 Fc with changes]
light: DIQMTQSPSSLSASVGDRITITCRASQSISRYLNWYQQKPGKAPKLLIYAASSLQSGIPSRFSGSGSGTDFTLTINSLQPEDFATYFCQQSYSPPFTFGPGTKVDIKRTVAAPSVFIFPPSDEQLKSGTASVVCLLNNFYPREAKVQWKVDNALQSGNSQESVTEQDSKDSTYSLSSTLTLSKADYEKHKVYACEVTHQGLSSPVTKSFNRGEC

rat PAC1 IC50 (cAMP assay) (rat PAC1): 22.5 nM | hVPAC2 IC50 (cAMP assay) (human VPAC2): > 10 µM | hVPAC1 IC50 (cAMP assay) (human VPAC1): > 10 µM | cyno PAC1 IC50 (cAMP assay) (cyno PAC1): 3.9 nM
B2: 39B (antibody, human IgG1, kappa)
heavy: QVQLQESGPGLVKPSQTLSLTCTVSGGSISSGGYYWSWIRQHPGKGLEWIGYIYYSGNTYYNPSLKSRVTISGDTSKNQFSLKLRSVTAADTAVYYCTRGGAARGMDVWGQGTTVTVSSASTKGPSVFPLAPSSKSTSGGTAALGCLVKDYFPEPVTVSWNSGALTSGVHTFPAVLQSSGLYSLSSVVTVPSSSLGTQTYICNVNHKPSNTKVDKKV[no letters for human IgG1 Fc with changes]
light: DIVMTQSPDSLAVSLGERATIHCKSSQSVLYSSNNKNFLTWYQQKPGQPPKLLIYRASTRESGVPDRFSGSGSGTDFTLTISSLQAEDVAVYFCQQYYSAPFTFGPGTRVDIKRTVAAPSVFIFPPSDEQLKSGTASVVCLLNNFYPREAKVQWKVDNALQSGNSQESVTEQDSKDSTYSLSSTLTLSKADYEKHKVYACEVTHQGLSSPVTKSFNRGEC
notes: "B" suffix: aglycosylated IgG1 variant (N297G); also called LC-19 and HC-52
